The campaign covered roughly 310,000 compounds. About 14,000 (4.5%) showed an effect of 50% or more. Effects have a minus sign here. Some of the results follow.
Each compound was assayed against human ether-à-go-go-related gene (hERG) potassium channel (human, UniProt Q12809) (assay: primary screen, population patch clamp on CHO cells stably expressing hERG).
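Further: peak tail current of the secondary pulse compared with the same well before compound.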

Sequence of human ether-à-go-go-related gene (hERG) potassium channel (Q12809 whole entry, looked up): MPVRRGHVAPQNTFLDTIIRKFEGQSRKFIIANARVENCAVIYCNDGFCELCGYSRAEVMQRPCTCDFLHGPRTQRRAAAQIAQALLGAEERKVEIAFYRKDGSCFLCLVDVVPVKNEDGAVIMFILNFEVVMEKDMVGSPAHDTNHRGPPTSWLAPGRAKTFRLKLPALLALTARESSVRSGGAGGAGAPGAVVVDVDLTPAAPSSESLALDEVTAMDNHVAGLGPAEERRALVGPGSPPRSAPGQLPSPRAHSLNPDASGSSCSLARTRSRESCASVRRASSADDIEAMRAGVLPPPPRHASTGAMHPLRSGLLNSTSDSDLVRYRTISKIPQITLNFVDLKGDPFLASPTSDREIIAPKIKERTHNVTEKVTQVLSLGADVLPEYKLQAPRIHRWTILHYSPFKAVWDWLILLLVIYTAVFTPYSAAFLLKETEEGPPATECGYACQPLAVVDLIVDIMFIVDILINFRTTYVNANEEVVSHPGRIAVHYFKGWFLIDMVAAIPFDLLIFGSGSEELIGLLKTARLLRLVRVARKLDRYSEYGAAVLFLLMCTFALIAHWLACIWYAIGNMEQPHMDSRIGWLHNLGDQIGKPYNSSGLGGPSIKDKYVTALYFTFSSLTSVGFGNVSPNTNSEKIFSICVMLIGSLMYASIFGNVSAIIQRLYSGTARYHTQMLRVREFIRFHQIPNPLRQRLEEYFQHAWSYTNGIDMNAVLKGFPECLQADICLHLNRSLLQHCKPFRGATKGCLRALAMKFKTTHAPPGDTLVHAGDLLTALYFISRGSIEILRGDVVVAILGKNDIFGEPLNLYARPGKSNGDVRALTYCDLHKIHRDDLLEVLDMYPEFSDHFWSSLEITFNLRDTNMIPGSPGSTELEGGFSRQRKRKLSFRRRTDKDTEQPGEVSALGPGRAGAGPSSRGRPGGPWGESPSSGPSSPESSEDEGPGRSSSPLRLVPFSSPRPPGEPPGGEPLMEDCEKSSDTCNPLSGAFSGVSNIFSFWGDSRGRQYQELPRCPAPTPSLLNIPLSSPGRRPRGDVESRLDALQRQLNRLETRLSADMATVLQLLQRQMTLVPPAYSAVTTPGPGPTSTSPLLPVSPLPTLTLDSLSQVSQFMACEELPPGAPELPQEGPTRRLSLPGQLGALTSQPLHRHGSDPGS

| SMILES | hERG current change (%, negative = inhibition) at 10uM |
| --- | --- |
| CCOC(=O)C1=C(C)NC(SCC(=O)O)=C(C#N)C1c1ccco1 (stereo not shown) | -3.38% |
| CCOC(=O)C1CCCN(C/C(O)=C(\C#N)c2nc(-c3ccccc3)cs2)C1 (stereo not shown) | 2.57% |
| O=C(CCc1nnc(Cc2c[nH]c3ccccc23)o1)NC1CCCC1 | -3.41% |
| O=c1c2cccnc2nc2n1CCCCC2 | 58.1% |
| CC(NC(=O)c1ccccc1F)c1ccccc1 (stereo not shown) | 3.4% |
| COc1ccccc1-c1ccc(/C=C2\C=CC(=O)O2)o1 | 5.42% |
| CC(=O)NC(CCS(C)(=O)=O)C(=O)Nc1c(F)cccc1F (stereo not shown) | -1.59% |
| Brc1cc(Br)c(Oc2cc(Br)c(Br)cc2Br)cc1Br | 16.4% |
| Cc1ccc(S(=O)(=O)Nc2c(C)cc(C)nc2Cl)cc1 | 2.77% |
| O=C(NC1CCCCC1)C(c1cc2c(cc1[N+](=O)[O-])OCO2)N1CCCCC1 (stereo not shown) | -16.5% |
| O=S(=O)(Nc1nc2ccccc2s1)c1ccc(Br)s1 | -5.3% |
| COc1ccccc1-n1c(CNC(=O)c2ccc(S(=O)(=O)N3CCOCC3)cc2)n[nH]c1=S | 9.27% |
| CCc1cc(=O)oc2cc(OC(=O)CN3C(=O)NC4(CCCC4)C3=O)ccc12 | 1.95% |
| COc1ccc(NC(=O)Nc2sc(=S)n(C)c2C)cc1 | 4.52% |
| CCc1nc(NCCO)c(C#N)c2c1CSC(C)(C)C2 | 19.8% |
| CC/C(=N\NC(=O)c1cccnc1)c1ccc2c(c1)OCCO2 | -41.5% |
| CCCn1c(C(O)c2ccc(OCC)cc2)nc2ccccc21 (stereo not shown) | 7.3% |
| Nc1ccc(N2CCN(C(=O)c3ccco3)CC2)cc1 | 12.3% |
| Cc1ccc(Oc2ncccc2/C=N/O)cc1 | 4.33% |
| CC(=O)Nc1ccc(S(=O)(=O)Oc2ccccc2N2CCCCC2)cc1 | -3.62% |
| NC(N)=NN=C1CCC(c2ccccc2)CC1 (stereo not shown) | 14.4% |
| c1coc(CNc2ncnc3[nH]ncc23)c1 | 15.3% |
| Cc1ccnc(NS(=O)(=O)c2ccccc2)c1 | 15.2% |

| SMILES | hERG current change (%, negative = inhibition) at 10uM |
| --- | --- |
| COc1cc(NC(=O)C2CSC3(C)CCC(=O)N23)c(OC)cc1Cl (stereo not shown) | -2.05% |
| CN(CCNC(=O)c1ccc(CS(=O)(=O)c2ccc(Br)cc2)o1)CCc1ccccc1 | -77.5% |
| Cc1ccc(S(=O)(=O)CC(=O)Nc2ncc([N+](=O)[O-])s2)cc1 | 21.8% |
| NC(=O)CC(NC(=O)Cc1cccc2ccccc12)c1ccc(NC2CCCCCC2)c([N+](=O)[O-])c1 (stereo not shown) | 6.24% |
| CCOC(=O)c1ccc(NS(=O)(=O)c2c(N)[nH]c(=O)[nH]c2=O)cc1 | 0.427% |
| COC(=O)C1=CN(C)C=C(C(=O)OC)C1c1ccccc1Cl | 6.5% |
| COC(Cc1ccccc1N1CCCC1=O)OC | -2.48% |
| CC(=O)Nc1ccc(C(=O)NCC(c2ccco2)N(C)C)cc1 (stereo not shown) | 10.1% |
| CC(=O)Nc1ccc(NC(=O)CNC(=O)c2sc3ccccc3c2Cl)cc1 | -0.527% |
| CCCCC(=O)Nc1ccc(C(=O)NNC(=S)NC(=O)c2ccco2)cc1 | 13.5% |
| Cc1ccc(NC(=O)/C=C/c2ccco2)nc1 | 6.41% |
| CCOc1ccc2c(=O)c(Oc3ccccc3OCC)coc2c1 | -6.31% |
| Cc1n[nH]c(=O)c2c(NC(=O)CSc3ccccc3F)oc(C)c12 | -7.96% |
| CC(c1nnc(SCC(=O)Nc2cc([N+](=O)[O-])ccc2F)n1Cc1ccccc1)N(C)C (stereo not shown) | -35.1% |
| CC1(C)C(c2ccccc2)=NC(c2ccccc2)N1O (stereo not shown) | -6.51% |
| COc1cccc(N=C2NC(=O)/C(=C/c3cc([N+](=O)[O-])ccc3O)S2)c1 | 12.5% |
| OCCC1CN(Cc2cccn2-c2cccnc2)CCN1CCc1ccccc1 (stereo not shown) | -65.2% |
| CCc1ccccc1NC(=O)CSc1nnc(-c2ccco2)n1N | 0.385% |
| CCOC(=O)c1cc(-c2nnc(-c3ccc(Oc4ccccc4)cc3)o2)c(C)nc1C | 14.4% |
| O=C(Nc1cc(Cl)ccc1-n1cncn1)c1ccc(F)c(S(=O)(=O)N2CCOCC2)c1 | -44.6% |
| CN(CC(=O)Nc1ccc(Cl)cc1)C(=O)c1ccc(N2CCCC2=O)cc1 | -16% |
| Cc1ccccc1OCC(=O)NC(=S)Nc1ccc(N2CCOCC2)c(Cl)c1 | 15.3% |
| CN1CCN(C(=O)C2CC(=O)N(c3ccc(F)c(Cl)c3)C2)CC1 (stereo not shown) | 9.66% |

| SMILES | hERG current change (%, negative = inhibition) at 10uM |
| --- | --- |
| Cc1ccc(Nc2nc(-c3c(C)n(C)n(-c4ccccc4)c3=O)c(C)s2)cc1 | -6.75% |
| COc1cc(/C=N/NC(=O)c2cccnc2)ccc1OS(=O)(=O)c1ccc(C)cc1 | 8.29% |
| CCn1c(SCC(=O)N/N=C/C=C/c2ccco2)nnc1-c1ccccc1 | -34.7% |
| CC(C)C(=O)Nc1ccc(NC(=O)c2ccco2)cn1 | 6.73% |
| CCOc1c(Br)cc(Br)cc1/C=C1\SC(N)=NC1=O | 24.2% |
| CN(C)CCN1C(=O)c2oc3ccccc3c(=O)c2C1c1ccc(F)cc1 (stereo not shown) | -16.3% |
| N#CC1=C(N)OC2=C(CCc3ccccc32)C1c1ccccc1 (stereo not shown) | 1.76% |
| Cc1ccc(C(=O)C(=O)c2ccc(C)c(N)c2)cc1N | -9.9% |
| Nc1nonc1C(=O)N1CCCCC1 | 29.7% |
| CC(C)n1c(N2CCN(C(=O)c3cccs3)CC2)nc2ccccc21 | -49.2% |
| COc1ccc(Cc2nc3ccc(C(=O)NCC4CCOCC4)cc3o2)cc1OC | 14.4% |
| CCC(Oc1ccccc1)C(=O)Nc1cc(C)on1 (stereo not shown) | -8.56% |
| CC(C1CC1)N(Cc1ccccc1)C(=S)Nc1ccccc1Cl (stereo not shown) | 47.9% |
| COc1cc(C(=O)NCC(=O)NCCN2C(=O)S/C(=C\c3ccc4c(c3)OCO4)C2=O)cc(OC)c1OC | -8.37% |
| Clc1ccc(-c2nc(-c3cnccn3)no2)cc1 | 8.67% |
| CC(Sc1nc(N2CCCCC2)c2c(c1C#N)CCCC2)C(=O)O (stereo not shown) | 17.5% |
| N#CC1=C2C=Cc3ccccc3N2CCCC1=O | 4.37% |
| CC(C)(C)NC(=O)CC(CC(=O)O)c1ccccc1 (stereo not shown) | 13.9% |
| Cc1nn(C(C)C(=O)N2CCc3ccccc3C2)c(=O)c2cc3occc3n12 (stereo not shown) | -13.3% |
| CCOc1ccc(N=C2NC(=O)S/C2=C\c2ccc(N(C)C)cc2)cc1 | -7.87% |
| O=C(NCc1ccccn1)Nc1ccc(F)cc1F | 1.51% |
| Cc1nc(NS(=O)(=O)c2ccccc2)sc1NC(=O)Nc1ccc(Cl)cc1 | 16.9% |
| Cc1ccccc1-n1c(Cn2c(=O)sc3ccccc32)nnc1SCC(=O)N1CCCC1 | -2.52% |

| SMILES | hERG current change (%, negative = inhibition) at 10uM |
| --- | --- |
| CON1C(=O)C(=O)N(OC)C(C)(C)C1(C)C | 0.346% |
| CCN1CCN(C(=O)Cn2ncc3c2-c2ccccc2OC3)CC1 | -10.1% |
| CCOC(=O)/C(C(=O)Nc1ccc(Cl)cc1Cl)=C1/NC(C)(C)Cc2ccccc21 | 4.48% |
| CCOC(=O)CN1C(=O)N[C@@H](c2ccco2)C(C(=O)OC)=C1C | 17.3% |
| COC(=O)[C@@]1(Cc2ccc(OC)cc2)[C@H]2c3cc(C(=O)N(C)C)n(C[C@H](O)CO)c3C[C@H]2CN1C(=O)c1ccccc1 | 22.5% |
| COc1ccc(C(=O)CSc2nnc(CNC(=O)c3ccccc3)o2)cc1 | -12.9% |
| CCS(=O)(=O)Nc1cc2c3c(c1)CCN3C(=O)CC2 | 22.9% |
| COc1ccc(OCc2nnc(SCC(=O)N3CCCC3)o2)cc1 | 8.77% |
| COC(=O)COC(=O)CC(CC(N)=O)c1ccccc1 (stereo not shown) | 15.5% |
| O=C(/C=C/c1cccs1)N1CCC2(CC1)Oc1ccc(Cl)cc1C(=O)C21CC(c2cccnc2)=NO1 (stereo not shown) | 8.6% |
| O=C(CCCCCCCCN1C(=O)c2ccccc2C1=O)N1CCOCC1 | 10% |
| CCOc1c(S(=O)(=O)NC2CC(C)(C)NC(C)(C)C2)ccc(Cl)c1Cl | 2.46% |
| O=C(C1c2ccccc2C(=O)N2CCc3ccccc3C12)N1CCC2(CC1)OCCO2 (stereo not shown) | 4.88% |
| Cc1ccc(C(=O)COC(=O)Cc2ccccc2)cc1 | 22.6% |
| Cc1ccc(OCC(=O)c2ccc3c(c2)CCCC3)cc1C | 4.7% |
| O=C(Nc1ccc(F)cc1)c1cccnn1 | -20% |
| O=C(N/N=C/c1cc(Br)ccc1O)c1ccccc1Cl | 10.3% |
| Nc1nnc(-c2ccco2)s1 | 10.6% |
| COc1ccc(C)cc1NC(=O)c1ccc2c(c1)C(=O)N(Cc1ccncc1)C2=O | -15.7% |
| CCCCCc1nc(N)c(C#N)c(-c2ccco2)c1CCCC | 12% |
| O=C(CN1C(=O)S/C(=C\c2ccccn2)C1=O)Nc1ccc(F)cc1 | 11.3% |
| Cc1nn(CC(=O)Nc2cccc(C(F)(F)F)c2)c(=O)c2cccn12 | -8.79% |

Source: publication PMC4336329 (PLoS ONE, 2015)
